# Measured values published in PubChem BioAssay AID1345083 (National Center for Advancing Translational Sciences (NCATS), 2018).
# The whole screen tested about 94,000 compounds, of which about 6,200 (6.6%) were called active. Inconclusive means that the source gave no clear call. Such entries were picked first, then a sample of the others. Calls come from the whole dose curve; as a rule, active = well fitted inhibition curve with a large enough effect; inconclusive = small, poorly fitted or top-dose-only effect; inactive = flat fitted curve, though single readings scatter. A potency beside an inconclusive call is a rough fit, not a confirmed value.
# Test: Cytotoxic Profiling in HEK 293 Cell Line of Diverse Libraries Using Quantitative High-Throughput Screening; note: nearly all actives have a fitted effect of over 60% in size
# Settings: HEK 293 viability, ATP luminescence (CellTiter-Glo), 48-72 h; series mostly up to 115 µM; activity change, negative = cytotoxicity: at the top concentration
# Summary of the method: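 Cells seeded first (HEK 293, 250 cells/well), then compound added by pintool. Incubation ran 48 or 72 hr at 37 degree Celsius. CellTiter-Glo was added and luminescence imaged after 10 min at room temperature.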
# % is set by controls: 0 for no effect and ±100 for the full control effect; potency is the fitted concentration of half-maximal effect; tags give direction and shape of the fitted curve.
Compound,Potency,"activity change, negative = cytotoxicity",outcome
O=C(C1CC1)N1[C@H]2CC[C@@H]1c1cnc(-c3ccc(F)cc3)nc1C2,"inconclusive: 17.8 µM [inhibitor, partial curve, poor fit]",,
CCC(CC)c1cc([C@H]2CN3CC[C@H]2C[C@@H]3CO)nc(-c2ccncc2)n1,active: 112 µM,,
COc1ccc(-c2cc([C@H]3CN4CC[C@H]3C[C@@H]4CNS(=O)(=O)c3ccc(NC(C)=O)cc3)n(C)n2)cc1,"inconclusive: 89.1 µM [inhibitor, single point]",,
C=C[C@H]1CN2CC[C@H]1C[C@@H]2CNC(=O)c1cc(OC)c(OC)c(OC)c1,"inconclusive: 89.1 µM [inhibitor, partial curve]",,
CC(=O)Nc1ccc(S(=O)(=O)NC[C@H]2C[C@@H]3CCN2C[C@@H]3c2cc(C3CCCC3)nn2C)cc1,"inconclusive: 50.1 µM [inhibitor, partial curve, poor fit]",,
O=C1Nc2ccccc2CC12CCCN(Cc1cccnc1)C2 (configuration not stated),,inactive: -32.4%,
O=C(O)CSCC(=O)N1C[C@@H]2C[C@H](C1)c1ccc(-c3cccc(C(F)(F)F)c3)c(=O)n1C2,"inconclusive: 89.1 µM [inhibitor, single point]",,
Cn1nc(-c2cccs2)cc1[C@H]1CN2CC[C@H]1C[C@@H]2CNC(=O)c1ccc2c(c1)OCO2,"inconclusive: 79.4 µM [inhibitor, partial curve]",,
O=C1Nc2ccccc2C12CCN(Cc1ccc(F)cc1)CC2,"inconclusive: 112 µM [inhibitor, single point]",,
COc1cc2c(cc1OCc1ccccc1)NC(=O)C21CCN(c2ncccn2)CC1,"inconclusive: 39.8 µM [inhibitor, full curve, poor fit]",,
CCC(CC)C(=O)NC[C@H]1C[C@@H]2CCN1C[C@@H]2c1cc(-c2ccco2)nc(C)n1,"inconclusive: 126 µM [inhibitor, single point]",,
Cn1nc(-c2cccs2)cc1[C@H]1CN2CC[C@H]1C[C@@H]2CNC(=O)Nc1ccccc1,active: 112 µM,,
COc1cc2c(cc1CCc1ccccc1)N(C(=O)c1ccc3[nH]ccc3c1)CC21CCN(C(C)=O)CC1,"inconclusive: 22.4 µM [inhibitor, full curve]",,
CC[C@H]1CN2CC[C@H]1C[C@@H]2CNC(=O)Nc1cccc(C#N)c1,"inconclusive: 126 µM [inhibitor, single point]",,
COc1ccc(-c2cc([C@H]3CN4CC[C@H]3C[C@@H]4CNS(=O)(=O)c3ccc(C)cc3)n(C)n2)cc1OC,active: 39.8 µM,,
O=C1NCCCCCCN(Cc2ccccn2)[C@H]2CCC[C@@H]12,"inconclusive: 79.4 µM [inhibitor, partial curve, poor fit]",,
CCn1cc(CN2CCN(C(=O)Cc3ccsc3)CC2)ccc1=O,"inconclusive: 89.1 µM [inhibitor, single point]",,
CC(C)(C)c1cn(C[C@H]2CC3CCN2C[C@@H]3C(=O)Nc2nccs2)nn1 (some centres not stated),"inconclusive: 126 µM [inhibitor, single point]",,
COc1ccc(C2(C(=O)N3CCC4(CC3)c3nccn3-c3ccccc3CN4C)CC2)cc1,"inconclusive: 28.2 µM [inhibitor, full curve, poor fit]",,

Compound,Potency,"activity change, negative = cytotoxicity",outcome
CCCc1nc(C(=O)N2C[C@@H](c3ccc(F)cc3)[C@@H]3[C@H]2C2CCN3CC2)cs1,,inactive: -0.202%,
O=c1c(-c2cccc(C(F)(F)F)c2)ccc2n1C[C@H]1C[C@@H]2CN(S(=O)(=O)c2cccs2)C1,"inconclusive: 89.1 µM [inhibitor, single point]",,
CCC1(N2CCN(C(=O)COc3cccc(Cl)c3)CC2)CCN(S(C)(=O)=O)C1 (configuration not stated),"inconclusive: 56.2 µM [inhibitor, partial curve, poor fit]",,
N#Cc1cccc(NC(=O)NC[C@H]2C[C@@H]3CCN2C[C@@H]3CN2CCN(c3ccccc3)CC2)c1,"inconclusive: 20 µM [inhibitor, full curve, poor fit]",,
Cc1cc(C(F)(F)F)nn1CC(=O)N1[C@H]2CC[C@@H]1c1cnc(-c3ccc(F)cc3)nc1C2,,inactive: -6.12%,
CC[C@H]1CN2CC[C@H]1C[C@@H]2CNC(=O)Nc1cccc(C(F)(F)F)c1,"inconclusive: 112 µM [inhibitor, single point]",,
Cc1nc(-c2ccccc2)cc([C@H]2CN3CC[C@H]2C[C@@H]3CN(Cc2ccco2)Cc2ccco2)n1,"inconclusive: 22.4 µM [inhibitor, full curve, poor fit]",,
COc1ccccc1N1CCN(C[C@H]2CN3CC[C@H]2C[C@@H]3CNC(=O)Nc2cccc(C#N)c2)CC1,,inactive: -19.1%,
N#Cc1cccc(NC(=O)NC[C@H]2C[C@@H]3CCN2C[C@@H]3CN2CCSCC2)c1,"inconclusive: 112 µM [inhibitor, partial curve, poor fit]",,
O=C(NC1CCCCC1)[C@H]1CN2CC[C@H]1C[C@@H]2Cn1cc(CCO)nn1,,,inactive [at 172 µM]
COc1ccc(C(=O)N2[C@H]3CC[C@@H]2c2cnc(C)nc2C3)cc1OC,,inactive: -7.84%,
O=[S+]1([O-])NCC2(CCN(Cc3ccccn3)C2)Oc2ncccc21 (configuration not stated),,inactive: -3.69%,
O=C1Nc2ccccc2CC12CCCN2Cc1ccncc1 (configuration not stated),"inconclusive: 56.2 µM [inhibitor, partial curve, poor fit]",,
CCC(CC)c1cc([C@H]2CN3CC[C@H]2C[C@@H]3COC(=O)Nc2ccc(C(C)(C)C)cc2)nc(-c2ccncc2)n1,active: 7.08 µM,,
CSc1cccc(NC(=O)NC[C@H]2C[C@@H]3CCN2C[C@@H]3CN2CCN(c3ccccc3)CC2)c1,active: 22.4 µM,,
Cc1nc(-c2ccc(F)cc2)cc([C@H]2CN3CC[C@H]2C[C@@H]3CNC(=O)NCc2ccccc2)n1,"inconclusive: 44.7 µM [inhibitor, partial curve, poor fit]",,
CCOC(=O)[C@H]1CN(C(=O)COc2ccccc2)[C@]2(C)C(=O)N(CCOC(C)=O)c3ccccc3[C@H]12,"inconclusive: 79.4 µM [inhibitor, partial curve]",,
COc1ccc2c(c1)C1(CCN(S(=O)(=O)c3ccc4c(c3)CC(=O)N4C)C1)C(=O)N2C (configuration not stated),"inconclusive: 50.1 µM [inhibitor, partial curve, poor fit]",,
